± gives the standard deviation of the averaged measurements. The list shows a part of the results.
The sequences below were run on PfAP2-G AP2 domain (GST-tagged) (assay: gcPBM binding intensity (ln(normalized median fluorescence intensity)); higher = stronger DNA binding).
Method in brief: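 After 1 h on an Agilent 4 × 180k array of primer-extended double-stranded 36-bp intergenic genomic probes and negative controls, bound GST-tagged P. falciparum DNA-binding domains were detected with Alexa488 anti-GST antibody and scanned at 488 nm. The domains had been expressed in E. coli, and binding took place in 1× PBS with 1% milk, 0.2 mg/ml BSA, 0.5% salmon testes DNA and 0.03% Triton X-100. Binding intensity is the highest Masliner-normalised natural-log median intensity across replicate spots of either probe orientation.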

“GGGGAGCTATCTCCTGCACACACAATTTTTTTTTTT [CACACA_site8703]” and “CACAAATATATACATACACACATATATACGCATATA [CACACA_site395]” are within error of each other in “gcPBM binding intensity (ln)” value: 10.3 ± 0.25 for the first, 10.2 ± 0.12 for the second.

“TAATGTATTATTTAATGTACTTAAAAAATAAATAAA [XGTACX_site3296]” and “AATGAACAGACGAGCACACACACACCCATATATATA [CACACA_site1018]” are within error of each other in “gcPBM binding intensity (ln)” value: 11.3 ± 0.96 for the first, 10.3 ± 0.16 for the second.

Going from “ACCTTTAATAAATACACACACATAAAAAAAATATAT [CACACA_site5086]” to “TAAAAATTAAAGTGTACACATATATATATATATATA [CACACA_site4781]”, the “gcPBM binding intensity (ln)” value rises from 10.3 ± 0.29 to 11.6 ± 0.97.

Going from “ATTACCATATTTTGTACACACATCTTTATCTCAATA [CACACA_site3217]” to “AAACCTATGTATATTATACACACTCCAAACTATTAT [CACACA_site8536]”, the “gcPBM binding intensity (ln)” value falls from 11.3 ± 0.71 to 10 ± 0.099.

Going from “TTTTATGTTTATGTGGTGCATGTTTTGAAGAAAATA [GTGCAC_site9616]” to “TATAAACCGACGAAAACACACATATGTAAATATATA [CACACA_site491]”, the “gcPBM binding intensity (ln)” value falls from 10.5 ± 0.38 to 10.01 ± 0.078.

Going from “ACCAATAATATACATACACACATAAATGTTTATATA [CACACA_site4328]” to “ACATGAATATATACACGTACATATATACATATATAT [XGTACX_site5872]”, the “gcPBM binding intensity (ln)” value rises from 9.975 ± 0.078 to 11.3 ± 0.81.

Compared with TGAAAAACTATCAGAGTGCATATATAGCTCGATACA, “CGGGGGTAGTTTTATGCACACGTTTATTAATGCTTC [CACACA_site5717]” is higher in “gcPBM binding intensity (ln)” value: 9.815 ± 0.021 for the first, 10.6 ± 0.35 for the second.

First: ATATAAAAAAAATTTAGTACATATATATATATATAT [XGTACX_site8635]
Second: AAAAAAATAATTAACACACACATGTATATCTATATA [CACACA_site3139]
The “gcPBM binding intensity (ln)” value of the first is higher: 10.9 ± 0.73 for the first, 9.77 ± 0.26 for the second.

Going from “TATATATATATATTATGTACTCATTTATTATCTTTT [XGTACX_site8051]” to “TACAATGAACATGAAACACACAAAAAAAAAAAAAAA [CACACA_site1544]”, the “gcPBM binding intensity (ln)” value falls from 11.4 ± 1.1 to 9.82 ± 0.45.

Compared with “ACATAGTAAATATTATGTACATAATATATACATTTA [XGTACX_site7500]”, “AATATACGATTGTCATTCATACATTGTTAACATAGT [CACACA_negctrl_site1151]” is lower in “gcPBM binding intensity (ln)” value: 11.1 ± 0.72 for the first, 10.12 ± 0.064 for the second.

Compared with “ATATACAGAAAAAATTAAAATAAATATGCAAAACAA [CACACA_negctrl_site704]”, “CTTAAACTTTTAAATACACACATACAGACATACACA [CACACA_site6401]” is higher in “gcPBM binding intensity (ln)” value: 9.83 ± 0.014 for the first, 10.4 ± 0.3 for the second.

Going from “TAAAAATGATCAAAGGGTACAGTATTAATTAAAAAA [XGTACX_site1079]” to “TTTACTTTTTTTATATATTATTTATTATATAATATA [CACACA_negctrl_site211]”, the “gcPBM binding intensity (ln)” value falls from 11.3 ± 0.93 to 9.76 ± 0.028.

In the case of “TTCTTAATTCATACCATCAAAACATTTATTCATATC [CACACA_negctrl_site43]”, the “gcPBM binding intensity (ln)” value is reported as 9.89 ± 0.057.

— the supplement of paper PMC11417369
